Experimental data: the supplement of paper PMC9446081
In all, about 39,000 compounds went through this assay and about 220 (0.56%) showed activity. Some of the results follow.

tested on: Escherichia coli K-12 BW25113; assay: relative growth (OD600 normalised to plate interquartile mean) (fraction); higher = less growth inhibition, active = 0.2 or less; settings: 50 µM; LB; incubation time: overnight (16-24 h)
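Further: static incubation at 37 °C against the wild-type strain, values averaged over two biological replicates.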

| Structure (SMILES) | relative growth |
| --- | --- |
| O=C(C[C@H]1C[C@@H]2c3cc(NS(=O)(=O)c4ccc(F)cc4)ccc3O[C@@H]2[C@H](CO)O1)NCc1ccncc1 | inactive: 1.02 |
| Cn1cnc(S(=O)(=O)N[C@@H]2C=C[C@@H](CC(=O)Nc3ccccc3)O[C@H]2CO)c1 | inactive: 0.886 |
| C[C@@H]1CN([C@@H](C)CO)C(=O)c2cc(NC(=O)Nc3cccc4ccccc34)ccc2O[C@@H]1CN(C)C(=O)Nc1ccccc1 | inactive: 1.03 |
| O=C(C[C@H](Nc1ccc(F)cc1)c1ccccc1)c1ccccc1 | inactive: 0.997 |
| Cc1noc(C)c1NC(=O)Nc1cccc2c1O[C@H](CN(C)S(=O)(=O)c1ccccc1)[C@@H](C)CN([C@H](C)CO)C2=O | inactive: 1.03 |
| O=C1c2ccccc2[C@@]2(Cc3ccccc3N(CC(F)(F)F)C2=O)[C@H](c2ccc(CO)cc2)N1Cc1ccccc1Cl | inactive: 1.03 |
| C[C@@H]1CN([C@H](C)CO)C(=O)c2cc(NC(=O)CCC(F)(F)F)ccc2O[C@@H](C)CCCCO[C@@H]1CN(C)Cc1ccc(Cl)c(Cl)c1 | inactive: 0.968 |
| C[C@@H]1CCCCO[C@@H](CN(C)C(=O)Nc2cccc3ccccc23)[C@@H](C)CN([C@H](C)CO)C(=O)c2cc(NC(=O)C3CCCCC3)ccc2O1 | inactive: 0.98 |
| COc1ccc(NC(=O)Nc2ccc3c(c2)C(=O)N([C@H](C)CO)C[C@H](C)[C@H](CN(C)C(=O)CCC(F)(F)F)OCCCC[C@H](C)O3)cc1 | inactive: 1 |
| COc1ccc(S(=O)(=O)N2C[C@@H](O)COC[C@H]3O[C@@H](CC(=O)N[C@H]4CCN(Cc5ccccc5)C4)CC[C@@H]32)cc1 | inactive: 0.965 |
| COCC#Cc1ccc2c(c1)O[C@@H](CN(C)C(=O)Nc1ccc(OC)cc1)[C@@H](C)CN([C@H](C)CO)S2(=O)=O | inactive: 1.01 |
| C[C@@H]1CN([C@H](C)CO)S(=O)(=O)c2ccc(-c3cncnc3)cc2O[C@H]1CN(C)C(=O)Cc1ccncc1 | inactive: 1.04 |
| C[C@@H]1CN([C@@H](C)CO)C(=O)c2c(c3ccccc3n2C)-c2ccccc2CO[C@H]1CN(C)CC1CCCCC1 | inactive: 0.994 |
| C[C@H]1CN([C@@H](C)CO)C(=O)CCCn2cc(nn2)CO[C@@H]1CN(C)S(=O)(=O)c1cn(C)cn1 | inactive: 1.02 |
| C[C@H](CO)N1C[C@H](C)[C@@H](CN(C)Cc2ccc(C(=O)O)cc2)Oc2ccc(NS(C)(=O)=O)cc2C1=O | inactive: 0.976 |
| C[C@@H]1CN([C@H](C)CO)C(=O)c2cccc(NS(C)(=O)=O)c2O[C@H]1CN(C)S(=O)(=O)c1ccc(Cl)cc1 | inactive: 0.994 |
